The source of these data is article PMC12136788.

To fix the notation:
T1: UNK ZnF1-3 (human, UniProt Q9C0B0 31-174)
T1 sequence: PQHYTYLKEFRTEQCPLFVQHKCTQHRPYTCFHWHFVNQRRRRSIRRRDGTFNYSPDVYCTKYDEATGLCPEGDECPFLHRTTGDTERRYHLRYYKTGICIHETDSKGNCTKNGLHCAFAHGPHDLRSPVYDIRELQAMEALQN

B1: 91052124_91052635_1258_ncRNA_ENSMUSG00000002109_ENSMUST00000150427|mouse|control|control (ssRNA)
RNA: GGGAGUUCUACAGUCCGACGAUCUCUGUGACCCAUCUUCCUCUUGGCUCCAAAUGAGAAUAUGAUAACCCAUAGUAGAGGCCAGUGUGUCUCCCAUAGGAUUGAACUCAUUGAGCGAAGUAAUACCGGAGUAUCCUGGAUCAUCAACAGAGGAUUGAGCAUCA
B2: chr19:59067291:59067292:-_ENSG00000130725_ENST00000253023|hu_mus|FALSE|FALSE (ssRNA)
RNA: GGGAGUUCUACAGUCCGACGAUCCAGGUCGGGGGGGAGGCAGCACCGACCAUAAUCACGUGGUGGUCAAAAAAAAAAUAACUAGGGGCAGGUGACAGGGAAGAGAGGCAAGGCCAAGGCAGGGGCCAAGGCUACCCCACACACCAACAGAGGAUUGAGCAUCA
B3: chrX:140365796:140365797:-_ENSMUSG00000031285_ENSMUST00000033642|mus_mus|mus_mus_mus_hu_False|18_48 (ssRNA)
RNA: GGGAGUUCUACAGUCCGACGAUCCUUCUCAUUACUCAGUGCCUGCAAGGUUCUGGUUCGGUAGAAGCUACAGUGGGCGCUGUGAGUGGGACUUGGAAACCCAUUCAUCCGGGAGCCUCUCAUAUUUCUGGAUGUCUUAUCUCUCAACAGAGGAUUGAGCAUCA
B4: chr1:225611761:225611762:-_ENSG00000143815_ENST00000272163|hu_mus|hu_hu_hu_mus_True|38_108 (ssRNA)
RNA: GGGAGUUCUACAGUCCGACGAUCCCAGGCCAUCGACCUCUGACCACUUCACCCUCAACAAACUUCCUACUUGGCAUUUUCUAAAAUUAGUCUGGCCCAGGUUCCGGGGGAACUCCAGCCACUCCAGGACAGUCACCAGCAGCCCAACAGAGGAUUGAGCAUCA
B5: 57885200_57885320_1821_CDS_ENSMUSG00000022361_ENSMUST00000070143|mouse|control|control (ssRNA)
RNA: GGGAGUUCUACAGUCCGACGAUCUACUUGAGUAAGGACCAGACCUGGCUGACCAACAAUUUGGCAUGUCUGUAAGAUAGAUGGUAACCCGUUACUCCCUGUGGAAAUGUGUGUAGGAAUAACAGUUAUGGUCUGAGGUACAGUCAACAGAGGAUUGAGCAUCA
B6: chr4:103517381:103517382:+_ENSG00000109320_ENST00000505458|hu_mus|FALSE|FALSE (ssRNA)
RNA: GGGAGUUCUACAGUCCGACGAUCAGGCGAUGGGUUCCGUCUUGGUGCAGGCCAUGGGCAGGCUGGGCCCUUCACCUUCAGUUUCCUUCUCAGGGAGAGUCAGACUCUCCUCGUCAUCACUCUUGGCACAAUCUUUAGGGCCAUCAACAGAGGAUUGAGCAUCA

The list shows a part of the results.

This test has as its target T1, UNK ZnF1-3. In words: nsRBNS (natural sequence RNA bind-n-seq); RBNS binding buffer (assumed for nsRBNS): 25 mM Tris pH 7.5, 150 mM KCl, 3 mM MgCl2, 0.01% Triton X-100, 500 ug/ml BSA, 20 U/ml SUPERase-In, 4 C; UNK is unkempt and MSI1 is Musashi-1; names of the RNAs are library labels; protein concentration not given here; high values mean tight binding.
Consider B1, for which the binding signal was 1.18 enrichment R. The molecule B2 had a binding signal of 2.42 enrichment R. B3 gave a binding signal of 0.668 enrichment R. Next, B4: 1.56 enrichment R; B5: 0.718 enrichment R; B6: 0.617 enrichment R.
